Source: PubChem BioAssay AID588855 (National Center for Advancing Translational Sciences (NCATS), 2011)
The whole screen tested about 410,000 compounds, of which about 5,000 (1.2%) were called active. The inconclusive results got no clear call from the source; some entries with a clear call stand among them for comparison. Calls come from the whole dose curve; as a rule, active = well fitted inhibition curve with a large enough effect; inconclusive = small, poorly fitted or top-dose-only effect; inactive = no such curve, though single readings can be large or run the other way. Potencies beside an inconclusive call are fits to weak or partial responses and may not hold up.

Experiment: qHTS for Inhibitors of TGF-b; note: nearly all actives have a fitted effect of over 65% in size
Settings: HepG2 CAGA-GFP TGF-b/SMAD3 reporter, GFP fluorescence, 18 h, TGF-beta stimulated, 500 pg/mL final; series mostly up to 46.1 µM
In short: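 Cell-based qHTS in HEPG2 carrying a CAGA-GFP Smad reporter; compounds added before 500 pg/mL final TGF-beta, 18 h incubation at 37 degrees C, GFP fluorescence quantified per cell by imaging cytometry.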
Potency is the fitted concentration of half-maximal effect; tags give direction and shape of the fitted curve.

SMILES	Potency
C=C(C)CN1C(=O)C(C)SC1=NN=C1SCC(=O)N1C (stereo unspecified)	inactive
COc1ccnc(N2CCN(c3ccccc3)CC2)c1C#N	inconclusive: 22.4 µM [inhibitor, single point]
Fc1ccccc1Nc1ncnc2c1nc1n2CCCCC1	inconclusive: 35.5 µM [inhibitor, single point]
CC(C)c1ccc(S(=O)(=O)c2cc3cc(Br)ccc3oc2=O)cc1	inactive
Cc1ccc(S(=O)(=O)N(C)/N=C/c2ccc(N(C)C)cc2)cc1	inactive
COc1cc(NC(=O)C2=C(N3CCOCC3)/C(=C\c3ccc(Cl)cc3Cl)CC2)cc(OC)c1OC	inactive
CCn1nc(C)c2c(-c3ccccc3)cc(=O)n(C(C)C(=O)NCCc3ccccc3)c21 (stereo unspecified)	inconclusive: 35.5 µM [inhibitor, single point]
COc1ccc(S(=O)(=O)n2nc(OCc3cccs3)cc2N)cc1	inconclusive: 35.5 µM [inhibitor, single point]
COc1cc(CSc2nnnn2-c2ccc(C)cc2)cc(OC)c1OC	inconclusive: 0.708 µM [inhibitor, full curve]
C/C=C(\NNC(C)=O)c1ccc(O)cc1	inactive
O=C(Nc1ccc(NC(=O)c2ccc(Cl)c(S(=O)(=O)N3CCOCC3)c2)cc1)c1ccccc1	inactive
COc1ccc(-c2cc(=O)oc3c(C)c(O)ccc23)cc1	inactive
CCOC(=O)N1CCN(CC(c2ccccc2)c2ccccc2)CC1	inactive
Clc1cccc(-c2cc3nc(NCCOc4ccccc4)ccn3n2)c1	inactive
Cc1ccc(S(=O)(=O)N2CCN(C(=O)CN3C(=O)NC4(CCOc5ccccc54)C3=O)CC2)cc1 (stereo unspecified)	inconclusive: 5.62 µM [inhibitor, single point]
CCCN1CCC(=O)N([C@H](CSc2ccccc2)Cc2ccccc2)CC1	inconclusive: 11.2 µM [inhibitor, single point]
Cc1cc(=O)oc2c3c(ccc12)OCN(Cc1ccc(Cl)cc1)C3	inactive
CCOC(=O)c1c(C)nc(-c2ccccc2)nc1NC(=O)C(C)C	inconclusive: 3.98 µM [inhibitor, partial curve, poor fit]
COc1cc(-c2ccc3oc(-c4ccsc4)c(C#CC4(O)CCCCC4)c3c2)cc(OC)c1OC	inconclusive: 31.6 µM [inhibitor, single point]
CCCC[C@@H]1C[C@H]1[C@@H](NC(=O)c1ccco1)c1ccccc1C(F)(F)F	inconclusive: 0.708 µM [inhibitor, full curve, poor fit]
NC(=S)Cc1nc(-c2ccccc2)cs1	inconclusive: 17.8 µM [inhibitor, single point]
